Among all 310,000 compounds or so, about 14,000 (4.5%) showed an effect of 50% or more. The effect is printed as a negative number. The list shows a part of the results.
What follows are compounds tested against human ether-à-go-go-related gene (hERG) potassium channel (human, UniProt Q12809) (assay: primary screen, population patch clamp on CHO cells stably expressing hERG).
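Note: peak tail current of the secondary pulse compared with the same well before compound.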

Chain of human ether-à-go-go-related gene (hERG) potassium channel (Q12809 whole entry, looked up): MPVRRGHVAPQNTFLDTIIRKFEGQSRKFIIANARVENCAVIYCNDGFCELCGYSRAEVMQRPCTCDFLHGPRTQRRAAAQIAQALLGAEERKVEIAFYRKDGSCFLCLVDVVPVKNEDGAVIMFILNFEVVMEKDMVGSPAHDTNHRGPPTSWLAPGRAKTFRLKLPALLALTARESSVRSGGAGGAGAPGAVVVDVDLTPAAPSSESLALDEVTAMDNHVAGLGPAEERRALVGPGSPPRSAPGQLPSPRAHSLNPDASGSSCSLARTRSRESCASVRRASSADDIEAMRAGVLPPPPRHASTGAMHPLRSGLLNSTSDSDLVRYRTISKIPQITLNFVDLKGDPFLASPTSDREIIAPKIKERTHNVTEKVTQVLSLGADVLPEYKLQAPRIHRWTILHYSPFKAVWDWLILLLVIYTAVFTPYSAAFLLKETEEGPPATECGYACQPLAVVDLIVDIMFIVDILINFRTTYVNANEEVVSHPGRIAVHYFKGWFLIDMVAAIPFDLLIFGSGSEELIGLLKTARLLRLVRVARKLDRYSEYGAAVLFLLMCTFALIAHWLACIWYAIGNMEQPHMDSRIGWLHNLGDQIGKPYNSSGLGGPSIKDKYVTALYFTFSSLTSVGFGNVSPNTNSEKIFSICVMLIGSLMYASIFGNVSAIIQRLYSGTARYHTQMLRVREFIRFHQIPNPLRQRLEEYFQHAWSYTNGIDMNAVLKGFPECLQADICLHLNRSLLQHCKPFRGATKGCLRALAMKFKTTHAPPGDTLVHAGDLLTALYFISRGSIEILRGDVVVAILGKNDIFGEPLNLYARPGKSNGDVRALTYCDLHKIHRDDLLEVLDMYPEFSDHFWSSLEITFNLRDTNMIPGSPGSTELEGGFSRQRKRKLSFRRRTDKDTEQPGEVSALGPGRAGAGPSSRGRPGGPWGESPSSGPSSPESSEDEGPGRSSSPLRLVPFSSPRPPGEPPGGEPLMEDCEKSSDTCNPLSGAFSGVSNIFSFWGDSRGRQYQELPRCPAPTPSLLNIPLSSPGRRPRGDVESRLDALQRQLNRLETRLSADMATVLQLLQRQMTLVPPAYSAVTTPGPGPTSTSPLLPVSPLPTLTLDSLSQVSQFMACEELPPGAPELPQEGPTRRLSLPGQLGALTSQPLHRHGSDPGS

Structure (SMILES)	hERG current change (%, negative = inhibition) at 10uM [%]
CCN(Cc1ccccc1)c1ccc(/C=N/N2CCOCC2)cc1	-31.5
Cc1ccc(/C=N/c2sc(Cc3ccccc3)c(C)c2C(N)=O)o1	-4.3
COc1ccc(OC)c(C(=O)NC(CC(N)=O)c2ccc(NCCOc3ccccc3)c([N+](=O)[O-])c2)c1 (stereo not shown)	-1.02
COc1ccc(-c2csc(-c3ccc(C(=O)O)cc3)n2)cc1	18.6
COc1cc(CN2CCN(CCc3ccccc3)C(CCO)C2)cc(OC)c1 (stereo not shown)	-63.5
Cc1csc(NC(=O)c2c(-c3c(F)cccc3Cl)noc2C)n1	-10.9
O=C(c1cnn2c(-c3ccccc3)cc(-c3ccccc3)nc12)N1CCN(Cc2ccccc2)CC1	-3.82
CNc1c(NS(=O)(=O)c2ccc(OC)cc2)c(=O)oc2ccccc12	11
CCO[C@H]1OC(C(=O)NCc2ccccc2)=C[C@@H](C2CC2)[C@@H]1CCCO	11.2
Cc1ccc(OCC(=O)Nc2ccccc2Sc2ccc(Cl)cc2)c([N+](=O)[O-])n1	-4.66
O=C(N/N=C/c1ccc(OCC(=O)N2CCOCC2)cc1)c1ccccc1Cl	9.74
CCOCCCNC(=O)C(c1ccc(OC)cc1)N(Cc1cccs1)C(=O)CNC(C)=O (stereo not shown)	13.6
Nc1cc(C(F)(F)F)ccc1NCCc1ccccn1	2.35
COc1cccc(CNC(=O)Cn2cc([N+](=O)[O-])cn2)c1	11.9
CCSc1nnc(NC(=O)c2cc(C)on2)s1	9.14
CC1CCCCC1NC(=O)C1CCCN(S(=O)(=O)c2ccc(-n3cnnn3)cc2)C1 (stereo not shown)	-43.6
COC(=O)CCC(=O)OC1(C)C(=O)C=C2C=C(C3CC3)N(C3CC3)C=C2C1=O (stereo not shown)	13
CCCCNC(=O)Cn1c(-c2ccc(OC)cc2)noc1=O	-12.3
CC1CN(S(=O)(=O)N(C)C)CCN1S(=O)(=O)N(C)C (stereo not shown)	3.53
COc1cc(OC)c(OC)cc1CNC(=O)c1cc(=O)c2ccccc2o1	8.48
CCn1cc(CN2CCC(n3nccc3NC(=O)C3CCCC3)CC2)c(C)n1	-12.4
CCn1c2ccccc2c2cc(/C(C)=N/O)ccc21	-4.31

Structure (SMILES)	hERG current change (%, negative = inhibition) at 10uM [%]
Cc1c(C(=O)NCCn2ccc3ccccc32)cccc1[N+](=O)[O-]	-12.1
Cc1ccc(NC(=O)COC(=O)CN2C(=O)NC3(CCCC3)C2=O)cc1Cl	-5.92
c1cncc(C2CCCN2)c1 (stereo not shown)	7.12
O=C(/C(=N/N=C/c1ccc(O)c(O)c1O)c1ccccc1)c1ccccc1	4.39
CCN(CC)S(=O)(=O)c1ccc(NC(=O)C(OC)c2ccccc2)cc1 (stereo not shown)	-10.3
COc1ccc(NS(=O)(=O)c2ccc3oc(=O)ccc3c2)cc1	9.08
CCN(CC(=O)Nc1ccc(NC(C)=O)cc1)C(=O)COc1ccccc1-c1ccccc1	-17.5
COc1ccc(CN(CCC(c2ccccc2)c2ccc(OC(C)C)cc2)C(=O)CCl)cc1OC (stereo not shown)	-1.82
O=C(NC1CCN(c2ncccn2)CC1)c1c(F)cccc1F	15.8
O=C(CNC(=O)c1ccc(F)cc1)NCc1ccc(Cl)cc1	9.88
COc1ccc([C@@H]2Sc3cc(OC)ccc3N(CCN(C(C)C)C(C)C)C(=O)[C@H]2OC(C)=O)cc1.Cl	-75
Cc1ccc(NCC(=O)N/N=C/c2ccncc2)cc1	27.7
Cc1ccc(C)c(NC(=O)CSc2nnc([C@@H](N)Cc3ccccc3)o2)c1.Cl	-6.03
COc1ccc(S(=O)(=O)N2CCCC2C(=O)Nc2nccs2)cc1 (stereo not shown)	6.48
Cc1ccc(C(=O)Oc2coc(CSc3nnc(NC(=O)c4cccs4)s3)cc2=O)cc1	6.03
Cc1cnccc1CNC(=O)CC1C(=O)NCCN1CC(C)(C)C (stereo not shown)	-12.5
Brc1ccccc1OCCCOc1cccc2cccnc12	5.67
CCOc1cccc(=[NH+]C2CCCCC2)c2c(C)[nH]c(C)c12.[O-][Cl+3]([O-])([O-])[O-]	-70.3
CCOc1cc(/C=C/C(=O)O)ccc1OCCOc1ccccc1	7.54
CCCC(=O)n1nc(-c2ccc(C)cc2)nc1NCc1ccco1	11.3
CCOP(=O)(OCC)c1nc(-c2ccc(C)cc2)oc1NCc1ccccc1	-23.5

Reference: publication PMC4336329 (PLoS ONE, 2015)
